From the supplement of paper PMC12217912
Some of the results follow. The full chains were built here from the parent and the listed change. Inactive controls read about 0.05.

B1: TEV protease; numbered along this chain (parent)
chain: MGESLFKGPRDYNPISSSICHLTNESDGHTTSLYGIGFGPFIITNKHLFRRNNGTLVVQSLHGVFKVKDTTTLQQHLVDGRDMIIIRMPKDFPPFPQKLKFREPQREERICLVTTNFQTKSMSSMVSDTSCTFPSGDGIFWKHWIQTKDGQCGSPLVSTRDGFIVGIHSASNFTNTNNYFTSVPKNFMELLTNQEAQQWVSGWRLNADSVLWGGHKVFMVKPEEPFQPVKEATQL

Variants of: B1
Assay: raw area under fraction-flipped curve 0-4 h after induction (AUC4h, not background-subtracted), DNA-recorder readout of cleavage of the substrate (dimensionless); higher = more cleavage of the substrate by the protease variant
Settings: temperature: 34 °C; time window: 0-4 h after rhamnose induction
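Further: Bxb1 expression induced with 0.2% (w/v) L-rhamnose at OD600 near 0.5, cultures sampled hourly, flipped fraction per protease–substrate barcode pair counted by paired-end Illumina sequencing.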

Variant	area with substrate ENLYFCS	area with substrate ENLYFDS	area with substrate ENLYFES	area with substrate ENLYFFS	area with substrate ENLYFIS	area with substrate ENLYFKS	area with substrate ENLYFPS	area with substrate ENLYFTS	area with substrate ENLYFYS	area with substrate ENLYFMS	area with substrate ENLYFRS	area with substrate ENLYFWS	area with substrate ENLYFGS	area with substrate ENLYFHS	area with substrate ENLYFLS	area with substrate ENLYFSS	area with substrate ENLYFVS	area with substrate ENLYFAS	area with substrate ENLYFNS
C152H	0.0477	0.0719	0.0537	0.0742	0.0551	0.0561	0.0524	0.0501	0.0496										
C152Y	0.0505		0.0421		0.0593	0.034	0.0531	0.0507	0.0573	0.0534	0.0701	0.0541							
R160F	0.0672	0.0661	0.0703	0.0677	0.0627	0.0813	0.062	0.0712	0.0627	0.0784	0.0582	0.0706	0.062	0.0527	0.0518	0.0628	0.0394		
D137P	0.0757	0.0559	0.0479	0.0798			0.0544	0.0635											
G8M	0.0711				0.0134		0.0479					0.0542		0.0593			0.0591		
L235H			0.0782	0.0569	0.0513		0.0344	0.0637	0.0622	0.0676		0.056		0.0553		0.0738	0.0869	0.0571	0.0713
F117V	0.0468	0.0517	0.0693	0.0666	0.0541	0.0713	0.0551	0.0699		0.0688	0.0676		0.0462	0.0657		0.0627			0.0611
L33K	0.067		0.0515	0.0643	0.0616	0.063	0.0581	0.0769		0.0602			0.0597			0.0612			0.0694
P134Y	0.0707		0.0492		0.0734	0.0611	0.0677	0.0583	0.0585	0.0613	0.0442	0.0603	0.0556		0.0542	0.0557	0.0536		0.0574
P104N	0.0477		0.0409	0.0583	0.0458	0.0511	0.0486	0.0434	0.047	0.0501		0.043			0.0277	0.0437			0.0571
P104S	0.0523	0.053	0.0552	0.0619	0.0425	0.049	0.045	0.0561	0.0357	0.0472	0.0529	0.0497			0.0192	0.0441	0.0588		0.0469
P104V	0.0523	0.0545	0.0542		0.0563	0.0554	0.0702	0.0616		0.0555			0.106	0.0551	0.0512	0.0565	0.0675		0.0503
L77P	0.0474				0.0694	0.0615			0.0572	0.0539	0.0669	0.0454		0.0539	0.0622		0.0665		
I110V	0.0582	0.0601	0.0562	0.0595	0.0597	0.0594	0.059	0.0576		0.0827	0.0812	0.0542		0.0687	0.0611	0.0525			0.0733
E231W				0.0732	0.0538	0.0691	0.0495		0.045	0.0662	0.0474			0.0877				0.0584	0.0618
K120D	0.059		0.0678	0.0777		0.0716	0.0644			0.0599				0.053	0.079		0.0706		
K120C	0.0664	0.0641	0.0679	0.0693	0.0579		0.0688	0.0506		0.0722		0.0328		0.0752	0.0579		0.0647		
K120V	0.0507	0.0588	0.0598		0.032		0.0554	0.0722	0.0526	0.0654	0.064	0.0606		0.0649		0.0477			0.0649
V165N	0.0393			0.0308	0.0375	0.0374	0.0573	0.0493			0.0459		0.0566			0.03			
L56K	0.0371	0.049		0.0552	0.0398	0.0534	0.035		0.0535	0.0473	0.0498	0.0914	0.0468	0.0568	0.039	0.0481	0.0413		0.0451
S18M	0.0698	0.0676	0.0613		0.062	0.0532	0.0718	0.0552	0.0603	0.0597	0.0348	0.0544	0.0791	0.0707		0.0571	0.0444		
V64E	0.0575			0.0415	0.0551	0.0719	0.061	0.0673		0.0603					0.0777	0.0421	0.0783		
V64G	0.057		0.0668	0.0727	0.0576		0.0583	0.048		0.0646	0.055	0.0521							0.0682
V64Y	0.0455				0.0638	0.0697				0.0611									
V64I	0.0805		0.0739	0.0657		0.0719	0.0582	0.0585	0.0535	0.0736			0.0472	0.0474	0.076	0.0742			0.0748
G136A	0.0601		0.0566	0.0794	0.0542		0.0595	0.0542		0.0662				0.0543					0.0472
G136E	0.0571	0.0517	0.0603	0.0586	0.0633	0.072	0.0567		0.048	0.0639	0.0461	0.0714		0.0292		0.0514	0.0517		
T114H	0.0615	0.0696	0.06	0.0716	0.0523	0.0691	0.0562		0.0797		0.0591								
Y12A	0.0642	0.0497	0.059	0.0635	0.0534	0.0755	0.0392		0.059	0.0693	0.0578	0.063	0.0243			0.053	0.0764		0.0578
